# Where “and” joins values, the source holds several entries; their conditions need not be identical. Equal entries are not always repeated. About 64,000 (15%) of roughly 420,000 compounds were called active. Inconclusive results, whose numbers are uncertain, are shown with a selection of clear calls. Calls follow the shape of the dose curve; as a rule, active = well fitted inhibition curve with a large enough effect; inconclusive = small, poorly fitted or top-dose-only effect; inactive = flat fitted curve, though single readings scatter. Where the call is inconclusive, the potency comes from a doubtful curve fit.
# Test: qHTS for Inhibitors of human tyrosyl-DNA phosphodiesterase 1 (TDP1): qHTS in cells in absence of CPT; also: nearly all actives have a fitted effect of over 55% in size
# Conditions: DT40 Tdp1-/- hTDP1 cells, no CPT, ATP luminescence, 48 h; activity change, negative = growth inhibition: at 46.2 µM (top of the series) unless noted
# Method in brief: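 Compound effects on proliferation are scored in DT40 Tdp1-/-;hTDP1 cells in the absence of CPT. ATP levels (CellTiter-Glo luminescence) are recorded after a ≥48 hr, 37 °C incubation.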
# % is scaled to controls: 0 for no effect and ±100 for the full control effect; potency is read from the fitted curve at half-maximal effect; tags tell the direction and shape of the fitted curve.
Structure (SMILES),Potency,"activity change, negative = growth inhibition"
Cc1ccc(C(=O)CCC(=O)NC2=NCCS2)cc1,"inconclusive: 29.1 µM [inhibitor, single point]",
CC(C)N(Cc1nccn1C)C(=O)C1CCC(=O)N(CCc2ccccc2)C1 (configuration not stated),inactive,
Cc1ccc(S(=O)(=O)NNC(=O)Nc2ccc(C)c(C)c2)c(C)c1,"inconclusive: 29.1 µM [inhibitor, single point]",
COc1ccc(OC)c(NC(=O)N2CCC3(CC2)Oc2ccccc2C(=O)N3Cc2ccccc2F)c1,active: 14.6 µM,
Cc1nn(C(=O)c2ccco2)c(C)c1Sc1ccc(Cl)cc1,inactive,
CCN(c1ccccc1)S(=O)(=O)c1cccc(C(=O)O)c1,inactive,
COc1ccc(-c2noc(CC(=O)N(C)c3cc(Cl)c(OC)cc3OC)n2)cc1,"inconclusive: 20.6 µM [inhibitor, single point]",
CSc1ccccc1NC(=O)c1ccc([N+](=O)[O-])cc1,"inconclusive: 29.1 µM [inhibitor, single point]",
COC(=O)c1cccc(NC(=O)c2nn(C)c(=O)c3ccccc23)c1,active: 8.2 µM,
COC(=O)c1c(C)oc(C)c1S(=O)(=O)NC(c1ccccc1)c1ccccc1,"inconclusive: 29.1 µM [inhibitor, single point]",
COc1cccc(CNS(=O)(=O)c2c(C(=O)N3CCCC3)c(C)n(C)c2C)c1,inactive,
COc1cc2ccc(C(C)=O)c(O)c2cc1OC,"inconclusive: 18.4 µM [inhibitor, partial curve, poor fit]",
C/C(=N\Nc1cccc2cccnc12)c1ccc[nH]1,active: 4.61 µM,
Cc1ccc(-c2cc(C(=O)Nc3sc4c(c3C(=O)NCc3ccco3)CCC4)[nH]n2)c(O)c1,"inconclusive: 9.2 µM [inhibitor, partial curve, poor fit]",
Cc1cc(C)c(S(=O)(=O)Nc2ccccc2C(=O)N2CCOCC2)c(C)c1,inactive,
COc1ccc(NC(=O)CN(C)CC(=O)c2c(C)[nH]c3ccccc23)cc1,"inconclusive: 25.9 µM [inhibitor, single point]",
CC1C(=O)N2CCCc3cc(S(=O)(=O)NCc4ccc(Cl)cc4)cc1c32 (configuration not stated),"inconclusive: 23.1 µM [inhibitor, single point]",
Cc1nn(Cc2ccccc2)c(C)c1/C=N/NC(=O)c1ccccc1O,inactive,
O=C(Nc1ccc2c(c1)OCO2)c1sc2cc(Cl)ccc2c1Cl,"inconclusive: 20.6 µM [inhibitor, single point]",
CCCN(CCC)S(=O)(=O)c1ccc(C(=O)N2CCCc3ccccc32)cc1,"inconclusive: 29.1 µM [inhibitor, single point]",
Cc1ccc(C)c(NC(=O)C2(C)CCN2C(=O)C(C)C)c1 (configuration not stated),inactive,
COc1ccc(C(=O)OCc2cc(C)ccc2C)cc1S(=O)(=O)N1CCCC1,"inconclusive: 20.6 µM [inhibitor, single point]",
CC(=Nc1ccccc1)Nc1ccccc1,inactive,
CCOC(=O)C1CCN(c2nc3ccccc3nc2C(C#N)C(=O)OC(C)C)CC1 (configuration not stated),active: 11.6 µM,

Structure (SMILES),Potency,"activity change, negative = growth inhibition"
Cc1ccc(S(=O)(=O)c2nnn3c2nc(NC2CCCCC2)c2sccc23)cc1C,"inconclusive: 29.1 µM [inhibitor, single point]",
COc1ccc(C(=O)N(CN2CCCC2=O)c2ccc(C)cc2)cc1,active: 14.6 µM,
CCc1ccccc1NC(=O)Cn1nnc(C(=O)NCc2cccc(OC)c2)c1N,"inconclusive: 29.1 µM [inhibitor, single point] and inconclusive: 23.1 µM [inhibitor, single point]",
NCc1cc2c3c(c1)CCCN3CCC2,inactive,
Cc1oc(-c2ccccc2Cl)nc1CS(=O)(=O)CC(=O)NCCc1ccccc1,"inconclusive: 29.1 µM [inhibitor, single point]",
CNCCC=C1c2ccccc2C=Cc2ccccc21,active: 13 µM,
Cc1ccc(-c2nc3ccccc3o2)cc1NC(=O)c1ccc2c(c1)OCO2,"inconclusive: 29.1 µM [inhibitor, single point]",
COc1ccc(C)cc1-n1c(SCC(=O)NCc2ccco2)nc2c([nH]c3ccccc32)c1=O,"inconclusive: 29.1 µM [inhibitor, single point]",
O=C(CSc1nnc2ccc3ccccc3n12)N1CCOCC1,inactive,
Cc1nc(SCC(=O)NC(=O)NCc2ccco2)nc(C)c1C,inactive,
CC1CCc2nc3ncn(Cc4cccc(F)c4)c(=O)c3cc2C1 (configuration not stated),"inconclusive: 25.9 µM [inhibitor, single point]",
COc1cccc(C(=O)NNC(=S)NC2CCCCC2)c1,"inconclusive: 20.6 µM [inhibitor, single point]",
COC(=O)[C@@]12CCCN1[C@H](c1ccc(-c3ccccc3)c(OC)c1)[C@H]1C(=O)N(C)C(=O)[C@H]12,inactive,
CCCCOC(=O)c1ccc(NC(=S)NC(=O)c2c(Cl)cnn2C)cc1,active: 16.4 µM,
O=C(Nc1ncc(Cc2ccccc2Cl)s1)c1ccc2c(c1)CC(c1ccccc1)OC2=O (configuration not stated),inactive,
N#C/C(=C(/O)COC(=O)COc1cccc(Br)c1)c1nc2ccccc2[nH]1,inactive,
Cc1ccc(Cn2ncc3c(N4CCN(c5ccccc5C)CC4)ncnc32)cc1,active: 16.4 µM,
O=C(NCC1COc2ccccc2O1)c1ccccc1 (configuration not stated),inactive,
CN1CCN(c2ncc3nc(-c4cccc(C#N)c4)c(=O)n(C)c3n2)CC1,"inconclusive: 29.1 µM [inhibitor, single point]",
CSc1ncccc1C(=O)OC(C)C(=O)Nc1cccc(S(=O)(=O)N2CCOCC2)c1 (configuration not stated),"inconclusive: 29.1 µM [inhibitor, single point]",
c1ccc2nc(SCc3cn4ccccc4n3)cnc2c1,,inconclusive: -33.7% [inhibitor]
Cc1ccc(CNc2nc(NCc3ccccc3)nc3ccsc23)c(C)c1,"inconclusive: 11.6 µM [inhibitor, partial curve, poor fit]",
Cc1nc(NC(=O)C(C)(C)C)sc1C(=O)Cn1cc(-c2ccc(C(C)(C)C)cc2)nn1,"inconclusive: 14.6 µM [inhibitor, single point]",

# — PubChem BioAssay AID686978 (National Center for Advancing Translational Sciences (NCATS), 2013)
